In ChEMBL document CHEMBL4888484, “Replenishing the malaria drug discovery pipeline: Screening and hit evaluation of the MMV Hit Generation Library 1 (HGL1) against asexual blood stage Plasmodium falciparum ,using a nano luciferase reporter read-out” (2022):
The campaign covered roughly 150,000 compounds. About 540 (0.36%) showed an effect of 50% or more. Some of the results follow.

system: Plasmodium falciparum; assay: Primary screen in NF54 nanoGlo assay, in single point, at 2uM, 72h; a lower Z score goes with more inhibition; type: functional, Erythrocyte; conditions: timepoint 72 hour

| Compound | % Inhibition | Z score |
| --- | --- | --- |
| Cc1ccc(C2CCN(C(=O)CCS(C)(=O)=O)CC2)cn1 | 13% | -1.69 |
| O=C(c1ccc[nH]1)N1CCC[C@H](c2[nH]ncc2Cc2ccccc2)C1 | -14% | 1.27 |
| O=C(c1nnc2n1CCCC2)N1CCc2[nH]nc(-c3cccc(F)c3F)c2C1 | -6% | 0.91 |
| Cc1nc2ccccn2c1CC(=O)NCc1cccnc1N1CCOCC1 | -4% | 0.77 |
| CC(C)Cc1nnc(NC(=O)c2cc3c(s2)CCC3)s1 | 3% | -0.48 |
| O=C1CCN([C@@H](C(=O)N2CCCC2)c2ccccc2)CCN1 | -5% | 0.72 |
| Cc1ncsc1C(=O)N(C)Cc1ccc(-n2cccn2)cc1 | -5% | 0.86 |
| CC[C@H](C)N(CCC(=O)Nc1nnc(-c2cccc(OC)c2)s1)C(=O)c1ccc2ccccc2c1 | -17% | 1.75 |
| CN(C(=O)Cc1cnn(-c2ccccc2)c1)[C@H]1CCS(=O)(=O)C1 | -3% | 0.61 |
| Cc1cccc(CS(=O)(=O)N(C)c2ccccc2)c1 | -10% | 1.88 |
| CC[C@H]1COCCN1C(=O)CCCn1ccnc1 | -9% | 1.67 |
| CNC(=O)c1ccc(-c2ccc(NC[C@H]3CCCO3)nc2)cc1C | -5% | 0.85 |
| Cc1[nH]ccc1C(=O)Nc1cccc(-c2nncn2C)c1C | 4% | -0.68 |
| CC(C)Cc1cc(C(=O)N[C@H]2CC=CC[C@@H]2C(N)=O)nc(N)n1 | -9% | 1.21 |
| C[C@@H](CNC(=O)c1cc2cc(Cl)ccn2n1)N1CCN(C)CC1 | 1% | -0.17 |
| Cn1nccc1C(=O)NC[C@H]1CCCN(c2ncc(F)c(N3CCOCC3)n2)C1 | 10% | -1.41 |
| Cc1ccccc1NC(=O)Nc1cnc(Oc2ccccc2F)nc1 | -10% | 1.9 |
| C=C(C)CN(CC)C(=O)C(=O)Nc1ccncc1C | -10% | 1.38 |
| Cc1ccc(-c2nn(C(C)(C)C)c3ncnc(NS(=O)(=O)c4ccc(Cl)cc4)c23)cc1 | -3% | 0.35 |
| CCc1nnc(-c2csc(S(=O)(=O)Nc3ccc(F)c(Cl)c3)c2)o1 | 11% | -1.29 |
| c1cncc(-c2cnn3cc(-c4ccncc4)cnc23)c1 | -2% | 0.46 |
| CO[C@H]1C[C@H]2CC[C@@H](C1)N2Cc1noc(-c2ccccc2)n1 | -9% | 1.19 |

| Compound | % Inhibition | Z score |
| --- | --- | --- |
| Cc1ccc(-c2cc(C(=O)Nc3nnc(C(C)C)s3)no2)cc1F | 29% | -7.07 |
| O=C(NC[C@H](O)c1ccccc1F)c1cccc(-n2cccn2)n1 | 0% | -0.05 |
| O=C(NCCc1cccs1)NC1CCCC1 | -5% | 0.8 |
| N#CCCN1C(=O)C[C@@H](c2ccc(C(F)(F)F)cc2)NC1=O | -17% | 3.3 |
| C[C@@H](c1nc(C2CC2)no1)n1ccc(C(F)(F)F)n1 | 8% | -1.55 |
| Cc1ncsc1C(=O)Nc1ccc(=O)n(Cc2ccc(Cl)c(Cl)c2)c1 | -13% | 1.76 |
| Cc1nn(C/C(N)=N/O)c(C)c1Br | -39% | 4.57 |
| COc1cccc(Cn2cnn(C(C)(C)C)c2=O)n1 | 7% | -0.96 |
| O=C(Nc1ccccc1)c1nnc(C(=O)N2CCC[C@H](C(=O)NC3CCCCCC3)C2)s1 | -25% | 2.18 |
| COCCN(CCC#N)c1ccnc(C(C)(C)C)n1 | -11% | 1.21 |
| O=C(NCCN1CCC[C@H](CO)C1)c1sccc1Cl | 6% | -0.81 |
| O=C([C@@H](O)Cc1ccccc1)N1CCC(F)(c2ccccn2)CC1 | -6% | 0.81 |
| Cc1c(NC(=O)COc2ccc(F)c(F)c2)cnn1C1CCCC1 | -15% | 1.9 |
| Cc1cc(C)cc(CN2CCCN(c3ccc(NC(=O)OCc4ccccc4)cc3)C2=O)c1 | -14% | 2.09 |
| O=C(Nc1cccnc1)NC1CCC2CCCCC2C1 (stereo not given) | 4% | -0.44 |
| O=C(CN1CCC(n2cncn2)CC1)NCc1ccccc1F | -36% | 4.27 |
| C[C@H](NC(=O)c1n[nH]c(=O)c2ccccc12)c1nnc2n1CCCCC2 | 1% | -0.09 |
| c1ccc(-c2ncc(CNC[C@H]3CCc4nncn4C3)cn2)cc1 | 1% | -0.1 |
| CCC(=O)N1CC[C@H](NC2CCCCCC2)C1 | -8% | 1.12 |
| CCCc1[nH]nc(-c2ccc3c(c2)OCO3)c1NC(=O)c1c(OC)cccc1OC | -2% | 0.28 |
| CCCNC(=O)Nc1ccnc([C@@H]2CCCN2C(=O)OC(C)(C)C)n1 | -9% | 1.64 |
| O=C([C@H](Cc1ccc(O)cc1)c1ccccc1)N1CCC2(CCO2)CC1 | -10% | 1.22 |

| Compound | % Inhibition | Z score |
| --- | --- | --- |
| CCc1cc(N2CC3CC2(C)C3)ccn1 | -12% | 1.64 |
| O=C(CCN1CC[C@H](N2CCCC2=O)C1)Nc1ccccc1 | -5% | 0.57 |
| CCOC(=O)c1nc(C)n(C)c1NS(=O)(=O)Cc1ccc(F)c(Cl)c1 | 8% | -1 |
| O=C(CN(CC(=O)NC1CC1)C1CCC(c2ccccc2)CC1)NC1CC1 (stereo not given) | -6% | 0.84 |
| C[C@@H](NCc1csc(C2CCCO2)n1)c1ccccc1 (stereo not given in full) | 0% | -0.01 |
| O=C(c1cc(F)c(F)c(F)c1)N1CCC(n2c(-c3ccccc3)nc3ccc(F)cc32)CC1 | -1% | 0.17 |
| CCC(C)OC(=O)CC1NCCNC1=O (stereo not given) | -5% | 0.59 |
| CCCc1ccc(C(=O)N2CCC(n3cnc4ccccc43)CC2)cc1 | -12% | 1.77 |
| COc1ccc(C(=O)C[n+]2cc(-c3ccc(OC)cc3)n3c2CCCC3)cc1 | 65% | -8.89 |
| O=C(C[C@H]1CCCOC1)NCc1noc(C2CCCC2)n1 | 1% | -0.14 |
| Cc1cnc(C(=O)N2CCC[C@H](c3c[nH]c4ncccc34)C2)c(C)c1 | -4% | 0.69 |
| CCOC(=O)N1CCN(C(=O)CCc2cc3cc(OC)ccc3nc2O)CC1 | -13% | 2.38 |
| C[C@H](OC(=O)c1cnc2[nH]nnc2c1)c1nc2cc(Cl)ccc2n1C | -21% | 2.92 |
| C1=C(CCn2ccnc2-c2ncc[nH]2)CCCC1 | -14% | 1.9 |
| COc1cc(C(=O)NCC(=O)OCC(=O)N2CCN(c3ccccc3F)CC2)ccc1OC(F)F | -12% | 1.08 |
| O=C(NC1CCCCC1)[C@H]1CN(S(=O)(=O)c2ccccc2Cl)CC12CCOCC2 | -12% | 2.23 |
| Cc1cc(CCNC(=O)Cc2cccs2)on1 | -1% | 0.15 |
| CN(C)S(=O)(=O)N(C)CCOC(=O)c1ccc(F)c(F)c1 | -10% | 1.1 |
| CC(C)C(=O)N1CCC(N[C@H]2CCCc3occc32)CC1 | -2% | 0.26 |
| O=C(CCC1CCCC1)N1CCC[C@H](c2nc(CCOCC3CCOCC3)no2)C1 | -14% | 1.37 |
| C[C@@H](CNc1ncccn1)Oc1ccc(F)cc1 | -8% | 1.27 |
| O=S(=O)(c1cccnc1C(F)(F)F)N1CCCC2(CCCCC2)C1 | 8% | -1.05 |

| Compound | % Inhibition | Z score |
| --- | --- | --- |
| Cc1nc2c(s1)C(N(C)S(=O)(=O)N(C)CC(C)C#N)CCC2 (stereo not given) | -1% | 0.18 |
| FC(F)Oc1ccc(-n2ccnc2-c2cc3n(n2)CCCNC3)cc1 | -7% | 1.32 |
| O=C1N[C@H](c2ccc(Br)cc2F)CO1 | -8% | 1.55 |
| Cc1cn(CC(=O)N2CC[S+]([O-])CC2c2cnn(C)c2)nc1C(F)(F)F (stereo not given) | 5% | -0.52 |
| COc1ccc(Oc2c(CN(CC(C)C)C(=O)c3ccccc3)c(-c3ccccc3)nn2C)cc1 | -4% | 0.47 |
| O=C(Nc1nc(C(=O)NCCN2CCOCC2)cs1)c1cccc(F)c1 | -15% | 1.44 |
| Cc1cccc(Cn2c(CNS(=O)(=O)c3ccc(Cl)cc3)nc3cccnc32)c1 | -16% | 2.06 |
| O=c1[nH]c(=O)n(S(=O)(=O)c2ccccc2)cc1F | 90% | -12.13 |
| O=C(c1ccon1)N1CC[C@H]2[C@H](CCC(=O)N2CCc2ccccn2)C1 | 3% | -0.57 |
| COc1cc(OC)c([C@@H](CC(N)=O)c2c(Cc3ccc4c(c3)CCO4)[nH][nH]c2=O)cc1OC | 0% | 0.06 |
| CC(NCC1OCCO1)C1CCCO1 (stereo not given) | -15% | 1.9 |
| O=C(O)c1sccc1CN1CCC[C@H]1c1nccc(C(F)(F)F)n1 | -6% | 1.17 |
| COC(=O)c1cc2c(cc1NC(=O)Cc1noc3ccccc13)OCO2 | -11% | 2.08 |
| N#Cc1cc(C(=O)N2CCC[C@H](c3cccc(C(F)(F)F)c3)C2)c[nH]1 | -10% | 1.26 |
| O=C(C1CC2CCC1C2)N1CCN(c2ccccn2)CC1 (stereo not given) | 4% | -0.53 |
| CC1(C(=O)O)NC(c2cc(Cl)ccc2O)C2C(=O)N(Cc3ccccc3)C(=O)C21 (stereo not given) | -11% | 1.51 |
| O=C(N[C@@H]1CC=C(c2ccc(F)cc2)CC1)c1nc2n(n1)CCCN2 | 36% | -1.32 |
| Cc1ccccc1S(=O)(=O)NCCn1c(-c2ccncc2)nc2ccccc21 | 5% | -0.95 |
| CC(C)[C@H](NC(=O)COC1CCCCC1)c1ccccc1NC(=O)COC1CCCCC1 | 4% | -0.51 |
